Results as given in article PMC4336329 (PLoS ONE, 2015).
Among all 310,000 compounds or so, about 2,200 (0.71%) showed an effect of 50% or more. Effects have a minus sign here. The list shows a part of the results.

These compounds were tested against human ether-à-go-go-related gene (hERG) potassium channel (human, UniProt Q12809) (assay: primary screen, population patch clamp on CHO cells stably expressing hERG).
Chain of human ether-à-go-go-related gene (hERG) potassium channel (Q12809 whole entry, looked up): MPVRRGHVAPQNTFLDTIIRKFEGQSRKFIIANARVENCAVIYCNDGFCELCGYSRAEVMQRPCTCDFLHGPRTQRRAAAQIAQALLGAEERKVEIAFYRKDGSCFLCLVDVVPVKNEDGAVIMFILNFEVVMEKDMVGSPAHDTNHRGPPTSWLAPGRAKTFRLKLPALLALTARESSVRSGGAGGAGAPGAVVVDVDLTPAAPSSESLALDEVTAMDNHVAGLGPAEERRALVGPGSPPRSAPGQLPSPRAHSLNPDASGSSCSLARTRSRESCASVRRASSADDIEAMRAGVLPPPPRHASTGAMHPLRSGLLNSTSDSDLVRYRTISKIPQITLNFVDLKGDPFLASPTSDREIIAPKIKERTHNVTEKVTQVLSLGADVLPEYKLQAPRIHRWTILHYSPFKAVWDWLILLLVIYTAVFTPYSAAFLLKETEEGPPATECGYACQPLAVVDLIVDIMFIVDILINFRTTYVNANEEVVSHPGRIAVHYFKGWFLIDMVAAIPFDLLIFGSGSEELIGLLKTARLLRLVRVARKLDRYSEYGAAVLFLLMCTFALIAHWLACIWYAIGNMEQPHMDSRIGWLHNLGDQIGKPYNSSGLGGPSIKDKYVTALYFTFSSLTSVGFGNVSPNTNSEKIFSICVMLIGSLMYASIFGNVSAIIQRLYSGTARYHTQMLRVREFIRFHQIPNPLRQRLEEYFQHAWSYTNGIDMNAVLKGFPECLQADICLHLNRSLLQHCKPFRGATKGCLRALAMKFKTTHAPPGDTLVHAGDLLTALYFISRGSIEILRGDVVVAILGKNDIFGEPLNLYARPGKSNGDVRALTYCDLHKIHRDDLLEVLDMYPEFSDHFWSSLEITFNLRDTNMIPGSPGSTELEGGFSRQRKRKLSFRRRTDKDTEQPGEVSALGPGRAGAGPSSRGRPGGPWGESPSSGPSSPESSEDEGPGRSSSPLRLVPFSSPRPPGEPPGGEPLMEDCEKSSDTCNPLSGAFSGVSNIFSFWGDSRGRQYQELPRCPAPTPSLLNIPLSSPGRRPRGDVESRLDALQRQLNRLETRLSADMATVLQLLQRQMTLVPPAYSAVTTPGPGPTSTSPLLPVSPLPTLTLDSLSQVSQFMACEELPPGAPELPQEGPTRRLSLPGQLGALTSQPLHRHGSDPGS

SMILES | hERG current change (%, negative = inhibition) at 1uM
O=C(NN1C(=O)c2ccccc2NC1c1ccccn1)c1ccccc1 (stereo not drawn) | 10.5%
Cc1c(NC(=O)c2ccc(N(C)S(C)(=O)=O)cc2)c(=O)n(-c2ccccc2)n1C | 13.8%
O=C(N/N=C\c1ccc(Cl)cc1Cl)c1sccc1-n1cccc1 | 3.71%
S=C(NCCCN1CCOCC1)Nc1cccc(Cl)c1 | 5.89%
CCCNC(=O)c1cn(CC)c2cc(N3CCN(C)CC3)c(F)cc2c1=O | 10.8%
CC(=O)Nc1ccc(C(=O)N/N=C/c2ccccc2OC(=O)c2ccc(Cl)cc2)cc1 | 12.2%
C[C@@H](CSc1ccccc1)CN1CC[C@H](C(C)(C)C)CCC1=O | 9.29%
Cc1ccc(C(=O)N2CC=C(c3ccccc3)CC2)o1 | 6.79%
CC(C)Oc1cc(NC(=O)CS(=O)CC(=O)Nc2cccc(C(F)(F)F)c2)c(Cl)cc1Cl (stereo not drawn) | 11.6%
CN(C1CCCCC1)S(=O)(=O)c1ccc(S(=O)(=O)N2CCN(C(=O)c3ccccc3F)CC2)cc1 | 14.3%
CCn1c(SCC(=O)N/N=C\c2ccccc2OCC(=O)O)nnc1-c1ccc(Cl)cc1 | 9.15%
Cc1ccc(S(=O)(=O)NCC(=O)OCC(=O)NC(=O)NC2CCCC2)cc1 | 12.8%
O=C(NCc1ccco1)/C(=C/c1ccc(F)cc1)NC(=O)c1ccccc1 | 10.2%
Cc1cc(OCC(=O)O/N=C(\N)c2ccccc2)ccc1Cl | 6.38%
Cn1nc(C(F)(F)F)c(/C=N/OC(=O)c2ccccc2)c1Cl | 4.14%
CN(C)S(=O)(=O)c1cc(NC(=O)CN2CCN(c3ccccc3F)CC2)ccc1Cl | 10.6%
N#Cc1cc(Br)ccc1N=C1CCCN1c1ccccc1 | -4.78%
CS(=O)(=O)c1cccc(-c2csc(N3CCC(C(N)=O)CC3)n2)c1.O=C(O)C(F)(F)F | -5.93%
Cc1ccc(C(=O)NCc2ccccc2)cc1Br | 7.97%
Cc1ccc(CN2C(=O)CSc3ccc(C(=O)NC4CC4)cc32)cc1 | 9.07%
CCOC(=O)c1ccc(NC(=S)N2CCC(O)CC2)cc1 | 7.52%
c1ccc(C2N3CCCN23)cc1 (stereo not drawn) | 10.4%
Fc1ccccc1CCNc1nnnn1-c1ccccc1 | 10.4%

SMILES | hERG current change (%, negative = inhibition) at 1uM
O=C(O)Cn1c(=O)c2c3c(sc2n(Cc2ccc(Cl)cc2Cl)c1=O)CCCC3 | 6.14%
Cc1nc(C(=O)Nc2ccc(Cl)cc2)sc1C1(C)CC(c2cccc([N+](=O)[O-])c2)=NO1 (stereo not drawn) | -13%
Cc1ccccc1C(=O)Oc1ccc(Br)cc1C(=S)N1CCCC1 | -2.6%
Cl.OC(COc1c(F)cc(Br)cc1F)CN1CCOCC1 (stereo not drawn) | 6.67%
C/C(=N\Nc1nc2ccccc2s1)c1cccs1 | 27.1%
Cc1ccsc1CN(C)C(=O)CN1C(=O)NC2(CCCc3ccccc32)C1=O (stereo not drawn) | -5.3%
COc1ccc(-n2nc(C(=O)NCC(=O)N3CCC(C)CC3)c3ccccc3c2=O)c(OC)c1 | 11.4%
COC(=O)CCNC(=O)CCc1ccc(S(=O)(=O)N2CCCCCC2)cc1 | 14.7%
CC(NC(=O)c1cccc(Br)c1)c1ccccc1 (stereo not drawn) | 23.7%
COC(=O)CCCC1=CC2=CC(=O)C(C)(OC(=O)c3ccc(Cl)nc3)C(=O)C2=CO1 (stereo not drawn) | 11.3%
CCc1nnc(NC(=O)CSc2ncc(-c3ccccc3)n2C)s1 | 9.75%
CSc1ccc(S(=O)(=O)NCCCOC(C)C)cc1 | 5.3%
CCC(=O)c1c(NCCc2ccccc2)cc(C)oc1=O | 18.5%
Cc1cc(C)n(-c2ncc3c(n2)N(C)CCOC3=O)n1 | 11.2%
Cc1cc(NC(=O)CN2CCN(c3ncccn3)CC2)no1.Cl | 14.7%
CC1=CC(C)C(C(=O)O)C(C(=O)O)C1 (stereo not drawn) | 19.7%
O=S(=O)(c1ccccc1)n1cc(-c2ccccn2)c(N2CCOCC2)n1 | 4.59%
CC1(C)Cc2c(cnn2-c2cccc(F)c2)C(NC(=O)CN2CCCC2=O)C1 (stereo not drawn) | 14.6%
Cc1ccc(N/C=C2\C(=O)C3(C)CCC2C3(C)C)cc1C (stereo not drawn) | 14.4%
NC(=O)c1ccccc1NC(=O)Nc1ccc(F)c(Cl)c1 | 8.45%
Cc1ccc(S(=O)(=O)N2CCN(CC(=O)Nc3ccccc3Cl)CC2)cc1 | 8.51%
CCCOc1ccc(-c2cnc(SCC(N)=O)nc2N)cc1 | 5.14%
